Data on 1 compound can be found in patent US9970935B2, “Uses of GLI1 in detecting tissue fibrosis” (THE BRIGHAM AND WOMEN'S HOSPITAL, INC., priority 2014, dated 2018).

Assay [1] concerns UUO kidneys. Description: Unilateral ureteral obstruction (UUO) kidney fibrosis model. To be noted: mouse, in vivo.
The test system of assay [2] is interstitial myofibroblasts and tubular epithelial cells. Particulars: mouse, in vivo.

On to `C[As](C)SC[C@H](NC(=O)CC[C@H](N)C(=O)O)C(=O)NCC(=O)O` [darinaparsin, S-dimethylarsino-glutathione], for which, in assay [1], the “endogenous Gli1 protein level in UUO kidneys” value is “significant reduction”; the “endogenous Gli2 protein level in UUO kidneys” value was “significant reduction”; the “number of Gli expressing interstitial cells after UUO” value is listed as “reduces”; the “phosphorylated retinoblastoma protein (p-Rb, Ser780)” value was “reduced”. Further, in assay [1], the severity of fibrosis entry was “significantly reduced”. Moreover, in assay [2], the “cell-cycle distribution of tubular-epithelial cells” value is reported as “without altering”.
